# Where “and” joins values, the source holds several entries; their conditions need not be identical. Equal entries are not always repeated. In all, about 220,000 compounds went through this assay and about 5,700 (2.6%) were called active. The shares of active, inactive and inconclusive entries below differ from those in the screen. Calls follow the shape of the dose curve; as a rule, active = well fitted inhibition curve with a large enough effect; inconclusive = small, poorly fitted or top-dose-only effect; inactive = no such curve, though single readings can be large or run the other way. Potencies of inconclusive entries are doubtful fits and often do not repeat.
# Target: Lysine-specific demethylase 5B (Homo sapiens) (UniProt Q9UGL1)
# Chain of UniProt Q9UGL1 (Q9UGL1 whole entry, looked up): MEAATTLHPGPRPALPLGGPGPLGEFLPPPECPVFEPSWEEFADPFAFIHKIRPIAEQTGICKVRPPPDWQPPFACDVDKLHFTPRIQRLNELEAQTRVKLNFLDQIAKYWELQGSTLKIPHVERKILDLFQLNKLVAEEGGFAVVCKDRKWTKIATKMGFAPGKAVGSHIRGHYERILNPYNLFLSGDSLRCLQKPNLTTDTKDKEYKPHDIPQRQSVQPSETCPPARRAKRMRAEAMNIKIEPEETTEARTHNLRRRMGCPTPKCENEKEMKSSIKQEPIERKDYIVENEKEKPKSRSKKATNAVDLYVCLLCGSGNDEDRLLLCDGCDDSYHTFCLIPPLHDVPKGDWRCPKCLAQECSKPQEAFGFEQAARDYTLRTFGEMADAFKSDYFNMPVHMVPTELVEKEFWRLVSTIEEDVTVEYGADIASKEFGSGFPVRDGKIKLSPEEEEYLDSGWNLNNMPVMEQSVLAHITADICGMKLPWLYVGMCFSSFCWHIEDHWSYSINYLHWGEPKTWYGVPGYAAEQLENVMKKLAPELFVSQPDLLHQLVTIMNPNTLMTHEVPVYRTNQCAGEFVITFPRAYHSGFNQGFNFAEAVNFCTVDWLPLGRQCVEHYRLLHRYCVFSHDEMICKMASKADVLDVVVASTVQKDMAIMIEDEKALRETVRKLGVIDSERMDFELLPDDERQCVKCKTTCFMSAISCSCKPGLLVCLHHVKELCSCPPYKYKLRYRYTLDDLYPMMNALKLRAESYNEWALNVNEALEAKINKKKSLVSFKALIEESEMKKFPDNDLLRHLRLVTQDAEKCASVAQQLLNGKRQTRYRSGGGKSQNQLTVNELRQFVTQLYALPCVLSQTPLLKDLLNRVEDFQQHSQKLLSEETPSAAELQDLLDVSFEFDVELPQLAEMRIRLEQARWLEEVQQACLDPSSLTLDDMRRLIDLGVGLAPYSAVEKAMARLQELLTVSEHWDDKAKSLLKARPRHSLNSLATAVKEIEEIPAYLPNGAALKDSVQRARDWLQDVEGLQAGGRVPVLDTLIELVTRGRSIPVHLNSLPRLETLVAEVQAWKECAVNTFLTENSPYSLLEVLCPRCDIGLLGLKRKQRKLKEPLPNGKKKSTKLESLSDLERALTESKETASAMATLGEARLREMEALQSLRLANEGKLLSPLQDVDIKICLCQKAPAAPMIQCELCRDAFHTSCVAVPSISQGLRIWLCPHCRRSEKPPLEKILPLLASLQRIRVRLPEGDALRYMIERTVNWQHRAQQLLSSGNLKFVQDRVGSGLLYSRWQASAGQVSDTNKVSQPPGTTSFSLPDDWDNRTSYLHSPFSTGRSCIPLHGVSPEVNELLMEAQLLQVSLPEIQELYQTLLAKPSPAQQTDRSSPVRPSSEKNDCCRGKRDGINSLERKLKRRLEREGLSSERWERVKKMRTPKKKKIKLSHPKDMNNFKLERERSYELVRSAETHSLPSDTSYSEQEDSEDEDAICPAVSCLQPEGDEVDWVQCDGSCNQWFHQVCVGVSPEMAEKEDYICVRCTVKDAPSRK
# Assay: Primary screen for KDM5B Histone Demethylases FDH-coupled qHTS; also: nearly all actives have a fitted effect of over 70% in size; as to activity change, negative = inhibition: 0% is about no effect
# Conditions: FDH-coupled NADH fluorescence (FDH is formaldehyde dehydrogenase); activity change, negative = inhibition: at 57.7 µM (top of the series) unless noted
# In short: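 Measured: NADH fluorescence change, 30 min, RT. System: KDM5BΔAP 200 nM final, H3K4me3 peptide, α-KG, Fe(II), ascorbate, NAD⁺ plus FDH, pH 7.5 HEPES. Compounds: titrated, 10 min pre-incubation with enzyme.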
# Potency is read from the fitted curve at half-maximal effect; tags tell the direction and shape of the fitted curve.
SMILES,Potency,"activity change, negative = inhibition"
CCc1ccc(C2=CC(c3cccc(Br)c3)n3nnnc3N2)cc1 (configuration not stated),"inconclusive: 25.1 µM [inhibitor, single point]",–
O=C(NC1CCCCC1)O[C@@H]1CO[C@H]2[C@@H]1OC[C@@H]2n1nnnc1SCc1ccco1,"inconclusive: 3.55 µM [inhibitor, full curve, poor fit]",–
COc1ccc2cc(C(=O)NCc3ccc4c(c3)CCN4C(=O)c3ccc(C)cc3)[nH]c2c1,"inconclusive: 5.01 µM [inhibitor, partial curve, poor fit]",–
O=C(NC1CC1)C1CCCN1c1nc2ncccc2o1 (configuration not stated),"inconclusive: 31.6 µM [inhibitor, partial curve]",–
Cc1cccc(CC(=O)N2CCCn3cc(-c4cccc(C#N)c4)nc32)c1,"inconclusive: 31.6 µM [inhibitor, partial curve, poor fit]",–
COc1ccc(OC)c(C2C(C(=O)c3ccco3)=C(O)C(=O)N2CC2CCCO2)c1 (configuration not stated),"inconclusive: 14.1 µM [inhibitor, partial curve, poor fit]",–
COc1ccc(CC(=O)OCC(=O)Nc2ccccc2OC(F)F)cc1,–,inactive: 2.73%
Cn1nccc1-c1cc2c(cn1)CN(Cc1ccncc1)CCN2,active: 35.5 µM,–
CCc1nc2ccccc2c(NC(=O)CN(CC)CC)c1C,"inconclusive: 17.8 µM [inhibitor, partial curve, poor fit]",–
CCC(=O)NC[C@H]1Cn2c(-c3ccc4c(c3)OCO4)cnc2CO1,"inconclusive: 31.6 µM [inhibitor, single point]",–
CCCCCCc1cc2cc(-c3nnc(-c4ccc(C)cc4)o3)c(=O)oc2cc1O,"inconclusive: 1.78 µM [inhibitor, full curve, poor fit]",–
Cc1ccc(-c2ccc(C(N)=O)o2)cc1,"inconclusive: 25.1 µM [inhibitor, partial curve, poor fit]",–
O=C(NCC1CN(C(=O)Cc2cccc(Cl)c2)CC12CN(c1ccccc1)C2)c1ccccc1 (configuration not stated),"inconclusive: 39.8 µM [inhibitor, single point]",–
O=C(O)/C=C/c1cc(Br)c(-c2ccc(Cl)cc2Cl)o1,"inconclusive: 28.2 µM [inhibitor, partial curve, poor fit]",–
COCCn1cc2c(c1-c1ccc(Cl)cc1)c(=O)n(C)c(=O)n2C,"inconclusive: 39.8 µM [inhibitor, single point]",–
FC(F)(F)c1cccc(N/N=C/c2ccc(Cl)cc2Cl)c1,"inconclusive: 39.8 µM [inhibitor, single point]",–
Cc1ccc(-c2ccc3nnc(CNC(=O)c4cc(Cl)ccc4F)n3n2)cc1,active: 28.2 µM,–
CCN(c1ccc(OC)cc1)S(=O)(=O)c1nnc(NC(=O)c2ccccc2C)s1,"inconclusive: 0.794 µM [inhibitor, partial curve, poor fit]",–
Oc1cccc(/C=C/c2nc3ccccc3s2)c1,"inconclusive: 25.1 µM [inhibitor, single point]",–

SMILES,Potency,"activity change, negative = inhibition"
O=C(Nc1cccc(C(=O)N2CCN(c3ccccc3F)CC2)c1)c1nsc2ccccc12,"inconclusive: 50.1 µM [inhibitor, single point]",–
COc1ccc(-c2cc3c(ccn3C)c(C(=O)NCc3c(C)cc(C)[nH]c3=O)n2)cc1,–,inactive: -6940% [at 86.2 µM]
O=C(O)c1cc(-c2ccco2)nc2ccc(Br)cc12,"inconclusive: 22.4 µM [inhibitor, single point] and inconclusive: 28.2 µM [inhibitor, partial curve, poor fit]",–
c1cc(N2CCCCC2)ccc1-c1n[nH]c(C2CCOC2)n1 (configuration not stated),active: 22.4 µM,–
Cc1ccc(NC(=O)c2cc(=O)c3ccccc3o2)cc1C,–,inactive: 21.5%
COc1ccc(CN2CCNc3cnc(Nc4cccnc4)cc3C2)cc1O,active: 35.5 µM,–
CCN(CC)S(=O)(=O)c1ccc(-c2nc(C#N)c(NC3CC3)o2)cc1,"inconclusive: 31.6 µM [inhibitor, partial curve, poor fit]",–
O=C1NC[C@@H](CCC(=O)N2CCN(c3ccccn3)CC2)N2C[C@@H](NCc3ccc(CO)o3)C[C@@H]12,"inconclusive: 31.6 µM [inhibitor, partial curve, poor fit]",–
COc1ccccc1-c1nc(C(=O)N2CCN(c3ncccn3)CC2)n2ccncc12,"inconclusive: 56.2 µM [inhibitor, partial curve, poor fit]",–
COc1ccc(F)c(-c2nc(COc3ccc(-n4cnnc4)cc3)c(C)o2)c1,"inconclusive: 31.6 µM [inhibitor, partial curve, poor fit]",–
COc1ccc(-c2nnc([C@H]3CCN(c4ncccn4)C3)o2)cc1,"inconclusive: 35.5 µM [inhibitor, partial curve, poor fit]",–
CC(=O)NC1(C)CCN(Cc2cccc(-c3ccc4c(ccn4C)c3)c2)C1 (configuration not stated),"inconclusive: 35.5 µM [inhibitor, single point]",–
O=C(O)c1ccc2c(C(C(=O)O)N3CCN(c4ncccn4)CC3)cn(Cc3ccccc3)c2c1 (configuration not stated),"inconclusive: 35.5 µM [inhibitor, single point]",–
O=C(NCC1CCCO1)c1nnn2cc(-c3ccccc3)[nH]c(=O)c12 (configuration not stated),"inconclusive: 28.2 µM [inhibitor, partial curve, poor fit]",–
COc1cccc(CNC(=O)c2ccc(-c3nc(CS(=O)(=O)c4ccccc4)c(C)o3)cc2)c1,"inconclusive: 35.5 µM [inhibitor, partial curve, poor fit]",–
COC(=O)c1ccc2c(=O)n(CCCCCC(=O)N3CCN(c4cc(Cl)ccc4C)CC3)c(=O)[nH]c2c1,"inconclusive: 15.8 µM [inhibitor, partial curve, poor fit]",–
COc1ccc(CNC(=O)c2cc(NC(C)=O)cc3nc(C)ccc23)c(OC)c1,"inconclusive: 11.2 µM [inhibitor, partial curve]",–
COc1ccc(-c2noc(-c3nnn4c3COC(c3ccc(Cl)cc3)C4)n2)cc1OC (configuration not stated),"inconclusive: 14.1 µM [inhibitor, partial curve, poor fit]",–

# Reference: PubChem BioAssay AID1347165 (National Center for Advancing Translational Sciences (NCATS), 2019)
